Measured values reported in the supplement of paper PMC10126150.
Values marked as one replicate rest on one cluster of the flow cell; about a third of the high ones do not repeat.

Tested on: ATP
Assay: switch fluorescence ratio, 500 uM ATP over buffer (Cy3 cluster intensity, sum of 5 cycles each) (fold (ratio)); higher = stronger signal-on switching upon ATP binding; sequences stand for … in TCGTCGGCAGCGTCAGATGTGTATAAGAGACAGTTTTTTTTTTTTTTTTTTTTTTTTT…TC
Conditions: aptamer strand: ATP DNA aptamer (quencher-CACCTGGGGGAGTATTGCGGAGGAAGG + anchor), 100 nM annealed; ATP concentration: 500 uM; one replicate
Procedure, shortened: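 Imaging in selection buffer was followed by imaging after 15 min with 500 uM ATP at 22 °C, for Cy3-labelled switching-strand clusters annealed to 100 nM quencher-labelled ATP aptamer on a modified Illumina MiSeq flow-cell. Five of these buffer/ATP cycles ran, separated by NaOH stripping and re-annealing. The fluorescence ratio per cluster is summed target-cycle over summed buffer-cycle Cy3 intensity, averaged per switch-domain sequence; clusters outside 100-1000 RFU were removed.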
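Further: ATP exposure 15 min at 22 °C before imaging.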

| Sequence | switch fluorescence ratio |
| --- | --- |
| CCATGGCCTT | 0.978 |
| CCCCGATAGA | 1.11 |
| GGGCGTGCTA | 1.01 |
| ACGATTTTTG | 0.963 |
| TATGGCAGT | 1.01 |
| GGTGCAAGGC | 1.34 |
| GGGGACTCTC | 0.998 |
| TCCGGTGTAT | 1.14 |
| TAACTGGCA | 0.978 |
| AACGTGGTGT | 1.03 |
| GTGTCCCGCG | 1.03 |
| AACCTTAA | 1.28 |
| TTCAGTTAC | 1.06 |
| AGTATCGCCC | 0.991 |
| ATGTTCAGAG | 0.984 |
| TAGACTAAAG | 0.991 |
| CATGAGTGT | 0.972 |
| ATATAGGCAC | 1.04 |
| CCGCGGCAG | 2.43 |
| CACAGATGGG | 1.02 |
| CATATGCGCA | 1.01 |
| TTGTTGCGCT | 1.04 |
| AAGCAATAGC | 2.42 |

| Sequence | switch fluorescence ratio |
| --- | --- |
| AACCTTCACA | 1.56 |
| ATGTGAGCAT | 1.02 |
| CGCGCTTCGG | 0.981 |
| GAATAAATGT | 0.988 |
| AATATGACCC | 1.15 |
| CGGTACCCTG | 1.02 |
| ATCCTAGAGC | 0.96 |
| AGGGAGACAG | 0.987 |
| CTAATTGAAT | 1.01 |
| CCTCGAGGCG | 1.04 |
| AATAGTCGCT | 1 |
| GCATTGAACC | 1.05 |
| GGGAGATTTG | 1.02 |
| TGTGTATATA | 1 |
| CCGCGCGCAG | 5.08 |
| GCGTTAACCA | 0.977 |
| GGAAGACACT | 0.989 |
| CCGAAGGGCC | 1.06 |
| ATCCAGGAGC | 0.803 |
| GCCGGGTGCC | 1.07 |
| CAGTGTACTT | 1.11 |
| CCTTGAACGC | 1.4 |
| GGTCCAGTAC | 1.09 |

| Sequence | switch fluorescence ratio |
| --- | --- |
| CACATTCTGA | 0.998 |
| GCGCATGTTC | 1.44 |
| GCCATGAACA | 1.04 |
| TATATACATA | 1.05 |
| TCAAGGGATG | 1.01 |
| AGCAAGAGGT | 1.05 |
| CAGAGTGACC | 1.01 |
| GGGGCGGCCG | 1.05 |
| ACTAGTAGAT | 0.978 |
| CGAAACTAAA | 0.965 |
| TTGAGTCCCT | 1.04 |
| CGAACGGGTG | 1.08 |
| AGGGTGGCCC | 0.981 |
| GGAAGGGA | 1.04 |
| TCTCGAAAAA | 1.06 |
| ACGGCCCTTA | 1.05 |
| GAAGCGAGTT | 1.08 |
| CGTGCAATG | 1.04 |
| TATGTAGAAT | 1.01 |
| CGTGGAAGCG | 0.985 |
| GGGTTAGTTA | 0.972 |
| GCGGATGGAC | 1.02 |
| TGGCGCCTTA | 0.988 |

| Sequence | switch fluorescence ratio |
| --- | --- |
| TTCTAATCGA | 0.984 |
| CTAATTGACA | 1 |
| CATTAACTGC | 0.939 |
| GTAGGTTTTC | 0.995 |
| GTTAGTTTAT | 0.956 |
| TGGTACACCC | 1.13 |
| ATCAGGGATT | 0.996 |
| TGTGAGAGCC | 1.02 |
| GAATAAAGGC | 0.986 |
| ATCTCAGATG | 1.05 |
| GGTATTTGCG | 0.957 |
| ACTGTATTT | 1.18 |
| ATTAGACAAC | 1.04 |
| TCACCAGATA | 1.02 |
| TGGCAATAAT | 2.33 |
| GTGCTAGAGG | 1.02 |
| TGTGTGCGGA | 1.02 |
| CCGTAATGCC | 1.57 |
| GTAATGTCAC | 1.03 |
| ATGTGTACTT | 1.01 |
| AGAGATACA | 1.02 |
| TTGGATTCGA | 0.98 |
| TCCTGTGCAG | 2.51 |

| Sequence | switch fluorescence ratio |
| --- | --- |
| TAAACTCTGG | 1 |
| TGTCTGTCGA | 0.987 |
| TGATATACCG | 1.05 |
| CAAAGGAAG | 1.06 |
| GATTGTCTGT | 1.01 |
| AAGTTCACAT | 1.02 |
| TCCAAGATTA | 1.03 |
| ATGTACCGCT | 1.05 |
| TTTAAAGTCG | 0.99 |
| CTCACCGGTC | 1.01 |
| ATAGTTCCCT | 1.04 |
| ACATCTGACT | 1.06 |
| GTTGTAGGA | 0.964 |
| CAACCATGCG | 1.02 |
| CGGGCAGAGT | 1.03 |
| AGTTACAAGG | 1.05 |
| AGTATACGAC | 1.12 |
| GAGCATCGGC | 1.25 |
| TGAGCGTTCG | 0.99 |
| TACGAGGGGC | 0.988 |
| CCCCCCCAC | 4.08 |
| CACGGGATTA | 0.986 |
| CGTTAGAGGA | 0.991 |

| Sequence | switch fluorescence ratio |
| --- | --- |
| CTAGTGCTTC | 0.984 |
| TGGATAGCGA | 1 |
| ACAAGGGG | 0.979 |
| ACATGCGATA | 1.06 |
| CTGGATCTTT | 0.944 |
| TAACTCCGTT | 1.06 |
| CGGTTTTGAT | 0.957 |
| TGAGGGTGCA | 1.04 |
| CTAAAGAGCT | 0.967 |
| GCATGCGTCC | 1 |
| GAGGGATGTC | 0.928 |
| CTTGGCCGTG | 1 |
| TGGCCCACGT | 0.997 |
| CGGGTGGCTA | 0.982 |
| ACTGTTGATC | 0.993 |
| GGTCGGGTGG | 0.911 |
| GTAAAATACT | 1.03 |
| CTCTGTACCG | 0.987 |
| GCCATTGCGT | 1.01 |
| GTTATCGGCT | 0.969 |
| CAACACTTAA | 1.03 |
| ATTGTGAAGT | 1 |
| CGCGAATGGT | 1.01 |

| Sequence | switch fluorescence ratio |
| --- | --- |
| GCCTCTTCTA | 1 |
| TTATCCCCGC | 1.45 |
| AAGCCGGAGA | 1.01 |
| TACAGCCCG | 0.947 |
| AGGCAGTTAT | 0.963 |
| ATGTGAAGTA | 1.04 |
| TATCCAGTTT | 0.843 |
| TCGCAGGAAC | 1.9 |
| AGTGTCACAC | 1.01 |
| TCGATACGAG | 1.09 |
| GCATTTCGGG | 0.977 |
| CTCTCTCGTC | 1.07 |
| GACTGTGATA | 0.989 |
| TATGCCCGTT | 0.947 |
| TTCCAGTTCT | 1.01 |
| GTGATGGGC | 1.06 |
| CCGTAGAGCA | 1.55 |
| TTTCGCCTCC | 1.23 |
| CTATTAAGCT | 1.03 |
